This is one part of the list.
B1: PhoQ; a variant is named by its letters at X, in order, P23837 (parent)
chain: MKKLLRLFFPLSLRVRFLLATAAVVLVLSLAYGMVALIGYSVSFDKTTFRLLRGESNLFYTLAKWENNKLHVELPENIDKQSPTMTLIYDENGQLLWAQRDVPWLMKMIQPDWLKSNGFHEIEADVNDTSLLLSGDHSIQQQLQEVREDDDDAEMTHSVAVNVYPATSRMPKLTIVVVDTIPVELKSSYMVWSWFIYVLSANLLLVIPLLWVAAWWSLRPIEALAKEVRELEEHNRELLNPATTRELTSLVRNLNRLLKSERERYDKYRTTLTDLTHSLKTPLXXLQXXLRSLRSEKMSVSDAEPVMLEQISRISQQIGYYLHRASMRGGTLLSRELHPVAPLLDNLTSALNKVYQRKGVNISLDISPEISFVGEQNDFVEVMGNVLDNACKYCLEFVEISARQTDEHLYIVVEDDGPGIPLSKREVIFDRGQRVDTLRPGQGVGLAVAREITEQYEGKIVAGESMLGGARMEVIFGRQHSAPKDE

Variants of: B1
Assay: enrichment ratio after two sorts for PhoP signalling (ratio (wild type AVST 3.29)); higher = more functional
Conditions: with PhoP (E. coli)

Variant | enrichment ratio
NQMY | ≤ 0.25
YCEP | ≤ 0.25
HRSV | ≤ 0.25
NKQW | ≤ 0.25
KPFE | ≤ 0.25
RYLI | ≤ 0.25
ACIY | ≤ 0.25
GSCH | 8.43
EFCM | ≤ 0.25
QIWN | 27.2
RRVF | ≤ 0.25
ESVC | ≤ 0.25
GCMG | 16.9
KSFF | ≤ 0.25
NTTS | ≤ 0.25
ETHR | ≤ 0.25
KATH | ≤ 0.25
WILD | ≤ 0.25
ALSW | 7.85
LDYN | ≤ 0.25
AQGC | 12.4
MSVM | 7.37
AIIS | 8.23
EIMR | ≤ 0.25

Variant | enrichment ratio
QAHN | ≤ 0.25
SNKS | ≤ 0.25
SHWN | ≤ 0.25
EVSP | ≤ 0.25
LDKP | ≤ 0.25
KEHE | ≤ 0.25
RWYT | ≤ 0.25
GKDM | ≤ 0.25
LRVV | ≤ 0.25
ASYG | ≤ 0.25
DAVH | ≤ 0.25
GVCG | 12.7
FPQK | ≤ 0.25
TNQG | ≤ 0.25
EPHM | ≤ 0.25
PTWC | ≤ 0.25
STVD | ≤ 0.25
MMKS | ≤ 0.25
MHYF | ≤ 0.25
DPYI | ≤ 0.25
IPSW | ≤ 0.25
ECTQ | ≤ 0.25
RIKD | ≤ 0.25
AWSH | ≤ 0.25

Variant | enrichment ratio
ENAY | ≤ 0.25
RFFV | ≤ 0.25
YVKS | ≤ 0.25
WSRI | ≤ 0.25
KRGE | ≤ 0.25
ERGW | ≤ 0.25
VTRH | ≤ 0.25
RQTF | ≤ 0.25
PIIV | ≤ 0.25
ACWS | ≤ 0.25
KFGM | ≤ 0.25
KTCM | ≤ 0.25
HPLC | ≤ 0.25
YHIW | ≤ 0.25
KEKC | ≤ 0.25
QRAR | ≤ 0.25
EQEF | ≤ 0.25
QEPK | ≤ 0.25
TTCW | 3.31
KDLA | ≤ 0.25
GIKW | ≤ 0.25
HFCY | ≤ 0.25
TCER | ≤ 0.25
KVLC | ≤ 0.25

Variant | enrichment ratio
YIYQ | ≤ 0.25
AMCC | 10.4
WTWH | ≤ 0.25
NWKI | ≤ 0.25
MLKV | ≤ 0.25
RITI | ≤ 0.25
CPIS | ≤ 0.25
PDHG | ≤ 0.25
TQPI | ≤ 0.25
MHCR | ≤ 0.25
MKVM | ≤ 0.25
FFRK | ≤ 0.25
SSCE | 3.26
NCAG | ≤ 0.25
FDEF | ≤ 0.25
RHEG | ≤ 0.25
GWRH | ≤ 0.25
DATL | ≤ 0.25
YHVN | ≤ 0.25
SHFL | ≤ 0.25
TESE | 20
YWVM | ≤ 0.25
TVGQ | 15.3
AGPY | ≤ 0.25

Variant | enrichment ratio
LACV | ≤ 0.25
FMLM | ≤ 0.25
HSCQ | ≤ 0.25
FGPT | ≤ 0.25
YEDK | ≤ 0.25
SLWI | ≤ 0.25
YNKP | ≤ 0.25
DDPD | ≤ 0.25
RMST | ≤ 0.25
GSST | 1.68
DCVQ | ≤ 0.25
IKIF | ≤ 0.25
LAPL | ≤ 0.25
IRVP | ≤ 0.25
MRDD | ≤ 0.25
NICL | 3.87
IEVV | ≤ 0.25
YGPS | ≤ 0.25
WFNE | ≤ 0.25
SPTY | ≤ 0.25
KKIV | ≤ 0.25
TCPH | ≤ 0.25
ELQK | ≤ 0.25
TAKA | ≤ 0.25

Variant | enrichment ratio
SVTG | 13.5
PWME | ≤ 0.25
EARA | ≤ 0.25
IGKL | ≤ 0.25
IFVD | ≤ 0.25
AEDM | ≤ 0.25
MVYH | ≤ 0.25
HDVY | ≤ 0.25
HHEY | ≤ 0.25
LPPH | ≤ 0.25
LEQF | ≤ 0.25
SFNV | ≤ 0.25
HSQN | ≤ 0.25
HYID | ≤ 0.25
YWYE | ≤ 0.25
SCGG | 11.1
HMPD | ≤ 0.25
FWLN | ≤ 0.25
RDRP | ≤ 0.25
FVFN | ≤ 0.25
TIQA | 4.81
QQIA | ≤ 0.25
EMGS | ≤ 0.25
SYCR | ≤ 0.25

Variant | enrichment ratio
PTQI | ≤ 0.25
KITP | ≤ 0.25
LRYF | ≤ 0.25
NILI | 0.917
PCPF | ≤ 0.25
DDKD | ≤ 0.25
APYW | ≤ 0.25
YNRC | ≤ 0.25
PYQD | ≤ 0.25
NPLF | ≤ 0.25
ERGC | ≤ 0.25
MTGN | ≤ 0.25
SKMK | ≤ 0.25
GPWC | ≤ 0.25
ACRH | ≤ 0.25
ITGA | ≤ 0.25
PVCY | ≤ 0.25
ANVH | ≤ 0.25
NWQD | ≤ 0.25
PILS | ≤ 0.25
AWVQ | 1.11
GIPW | ≤ 0.25
GAYF | ≤ 0.25
FLMN | ≤ 0.25

Variant | enrichment ratio
YHQW | ≤ 0.25
LRNP | ≤ 0.25
DEFH | ≤ 0.25
FKWV | ≤ 0.25
PMNM | ≤ 0.25
SIGD | 7.24
KRSR | ≤ 0.25
LPQF | ≤ 0.25
HKFM | ≤ 0.25
HAMK | ≤ 0.25
DSIL | ≤ 0.25
FCCI | ≤ 0.25
AWGA | ≤ 0.25
IEAK | ≤ 0.25
VYNH | ≤ 0.25
DDSD | ≤ 0.25
YKGQ | ≤ 0.25
WPCR | ≤ 0.25
VMAN | ≤ 0.25
YGAD | ≤ 0.25
MCGM | 12.2
RNND | ≤ 0.25
RFQC | ≤ 0.25
GPKY | ≤ 0.25

Variant | enrichment ratio
HWLT | ≤ 0.25
NQTN | ≤ 0.25
ERVY | ≤ 0.25
DVFG | ≤ 0.25
VICM | ≤ 0.25
RLGQ | ≤ 0.25
LIQD | ≤ 0.25
MCRY | ≤ 0.25
LGQL | ≤ 0.25
IMMY | ≤ 0.25
IWPD | ≤ 0.25
PNYW | ≤ 0.25
NFFD | ≤ 0.25
HMER | ≤ 0.25
QPIG | ≤ 0.25
KRNG | ≤ 0.25
LWRQ | ≤ 0.25
PAIS | ≤ 0.25
AACK | ≤ 0.25
VDTA | 0.656
WWLH | ≤ 0.25
GFGH | ≤ 0.25
WTNG | ≤ 0.25
REGP | 0.634

Variant | enrichment ratio
PPGH | ≤ 0.25
WSTH | ≤ 0.25
CSPF | ≤ 0.25
AASN | 10.1
PLEH | ≤ 0.25
AYVI | 0.489
SYFF | ≤ 0.25
MVWQ | 10
HPAY | ≤ 0.25
PQWL | ≤ 0.25
GGDP | ≤ 0.25
VYHG | ≤ 0.25
VPST | ≤ 0.25
RTHG | ≤ 0.25
GAPD | ≤ 0.25
FWFS | ≤ 0.25
WVVG | ≤ 0.25
LKTY | ≤ 0.25
SYMG | 12.5
FLST | ≤ 0.25
VAQF | ≤ 0.25
PSGH | ≤ 0.25
VFDC | ≤ 0.25
MWVD | ≤ 0.25

Variant | enrichment ratio
PLFT | ≤ 0.25
NKNH | ≤ 0.25
TLYR | ≤ 0.25
RLCN | ≤ 0.25
AINY | ≤ 0.25
HALF | 3.03
IYHE | ≤ 0.25
VIAK | ≤ 0.25
ATDG | ≤ 0.25
PSVM | ≤ 0.25
HFVF | ≤ 0.25
QDSR | ≤ 0.25
TIPC | ≤ 0.25
TACF | 18.8
DYTG | ≤ 0.25
VGNM | ≤ 0.25
KSLA | ≤ 0.25
IVQW | ≤ 0.25
YQST | ≤ 0.25
KTMH | ≤ 0.25
MTFN | 16.9
DHRL | ≤ 0.25
AQRK | ≤ 0.25
LVMH | ≤ 0.25

Variant | enrichment ratio
QHVF | ≤ 0.25
AWPQ | ≤ 0.25
DAQC | ≤ 0.25
EHGY | ≤ 0.25
PWYY | ≤ 0.25
LFCE | ≤ 0.25
NGFY | ≤ 0.25
PSNN | ≤ 0.25
MTYN | ≤ 0.25
NNRF | ≤ 0.25
RMEC | ≤ 0.25
NSWS | ≤ 0.25
WYGS | ≤ 0.25
QKTH | ≤ 0.25
LRWF | ≤ 0.25
GTTR | ≤ 0.25
AMME | 8.23
VDFE | ≤ 0.25
FMYE | ≤ 0.25
YYFK | ≤ 0.25
TRMI | 8.07
ELQL | ≤ 0.25
SRVA | ≤ 0.25
SSCC | 17.1

Variant | enrichment ratio
TFTP | ≤ 0.25
QVLS | ≤ 0.25
PLFS | ≤ 0.25
RPDG | ≤ 0.25
SYTD | ≤ 0.25
GYIH | ≤ 0.25
QNVN | ≤ 0.25
PVKI | ≤ 0.25
PYEF | ≤ 0.25
EDFM | ≤ 0.25
FVGA | ≤ 0.25
FGQD | ≤ 0.25
VSYL | 1.63
QLFG | ≤ 0.25
FGYV | ≤ 0.25
ATPH | ≤ 0.25
GCAW | ≤ 0.25
MWNG | ≤ 0.25

Reference: a collection of fitness landscapes (doi:10.1126/science.1257360)
